# Data reported in paper PMC4336329 (PLoS ONE, 2015).
# Screen size: about 310,000 compounds; about 2,200 (0.71%) showed an effect of 50% or more. Effects have a minus sign here. This is one part of the list.
# Biological target: human ether-à-go-go-related gene (hERG) potassium channel (human, UniProt Q12809)
# Test: primary screen, population patch clamp on CHO cells stably expressing hERG
# Sequence of human ether-à-go-go-related gene (hERG) potassium channel (Q12809 whole entry, looked up): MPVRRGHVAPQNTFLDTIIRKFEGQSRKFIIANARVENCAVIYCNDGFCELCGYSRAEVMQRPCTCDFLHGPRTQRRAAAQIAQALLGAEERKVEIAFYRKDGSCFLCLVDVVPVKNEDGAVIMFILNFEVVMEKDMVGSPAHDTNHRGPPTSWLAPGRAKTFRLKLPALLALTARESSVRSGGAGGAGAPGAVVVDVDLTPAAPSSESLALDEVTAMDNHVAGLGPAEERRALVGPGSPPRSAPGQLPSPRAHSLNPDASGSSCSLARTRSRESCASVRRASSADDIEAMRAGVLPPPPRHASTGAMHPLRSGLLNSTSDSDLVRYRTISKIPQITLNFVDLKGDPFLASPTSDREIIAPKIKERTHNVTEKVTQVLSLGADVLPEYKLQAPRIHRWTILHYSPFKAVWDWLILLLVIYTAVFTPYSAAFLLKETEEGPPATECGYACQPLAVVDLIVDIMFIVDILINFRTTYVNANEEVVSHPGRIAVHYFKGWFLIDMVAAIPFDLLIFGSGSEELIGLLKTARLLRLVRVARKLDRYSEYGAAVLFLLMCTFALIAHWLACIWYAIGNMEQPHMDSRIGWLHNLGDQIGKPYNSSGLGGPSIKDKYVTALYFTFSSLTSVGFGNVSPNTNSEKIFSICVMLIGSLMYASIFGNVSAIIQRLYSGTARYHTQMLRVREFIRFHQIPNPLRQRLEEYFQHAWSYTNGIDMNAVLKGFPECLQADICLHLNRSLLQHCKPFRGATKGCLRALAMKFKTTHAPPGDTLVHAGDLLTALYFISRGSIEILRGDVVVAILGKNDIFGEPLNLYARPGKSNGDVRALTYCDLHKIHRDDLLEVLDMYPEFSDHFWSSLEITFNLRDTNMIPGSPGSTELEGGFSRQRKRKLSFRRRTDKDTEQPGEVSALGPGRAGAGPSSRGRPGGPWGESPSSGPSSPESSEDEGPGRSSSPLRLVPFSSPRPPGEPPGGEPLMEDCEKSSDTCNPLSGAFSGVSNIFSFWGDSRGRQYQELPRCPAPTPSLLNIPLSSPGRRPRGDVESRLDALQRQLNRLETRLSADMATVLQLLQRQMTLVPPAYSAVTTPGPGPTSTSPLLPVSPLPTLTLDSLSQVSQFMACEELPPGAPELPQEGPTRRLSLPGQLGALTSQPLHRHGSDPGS
row,SMILES,"hERG current change (%, negative = inhibition) at 1uM [%]"
1,Cc1sc2c(c1C)c(=O)n(-c1ccccc1)c1nncn21,11.8
2,COC(CNC(=O)c1coc2nc3ccccc3nc12)OC,13.7
3,CCn1c(=O)c(C(=O)Nc2ccsc2C(=O)OC)c(O)c2ccccc21,14.5
4,COc1cc2cc[n+](Cc3ccc([N+](=O)[O-])cc3)cc2cc1OC.[Cl-],-7.7
5,CCCCC(CC)C(=O)Nc1ccc(S(=O)(=O)Nc2nccs2)cc1 (stereo not drawn),15.6
6,CCn1c(SCc2nc(-c3ccccc3)no2)nc2ccccc21,-5.48
7,CC(C)(C)c1csc(NNC(=O)c2ccc(Cl)cc2)n1,13.8
8,Cc1cc(C)c(C)c(OCC(=O)O/N=C(\N)c2ccncc2)c1,1.5
9,Cc1ccc(C(=O)CN(CCCC(N)=O)C(=O)c2ccncc2)cc1,17.2
10,COc1ccc(CNC(=O)CNC(=O)c2sc3ccccc3c2Cl)cc1OC,16
11,Cc1cc(C)nc(N/N=C/C=C/c2ccccc2)n1,2.04
12,Cc1ccc(NC(=O)N2CCCn3c(SCC(=O)c4ccccc4)nnc32)cc1,9.94
13,O=C(CN1C(=O)NC2(CCCCC2)C1=O)NCc1cccs1,1.94
14,Cn1c(SCc2cccc(C#N)c2)nc2ccccc2c1=O,16.8
15,Cc1nc2ccccc2nc(=O)c1NNc1ccc([N+](=O)[O-])cc1,8.1
16,Cc1nc(NC(=O)Nc2ccc(Cl)cc2)sc1C,13.2
17,CN(C)S(=O)(=O)c1cccc(NC(=O)COC(=O)COc2ccccc2[N+](=O)[O-])c1,14.5
18,CC(=O)Nc1ccc(NC(=O)CSc2ccc3nnc(CCNC(=O)c4ccccc4)n3n2)cc1,-0.725
19,COc1ccc(N2C(=O)NC(NC(=O)C(C)(C)C)(C(F)(F)F)C2=O)cc1 (stereo not drawn),12.3
20,Cc1ccc(CNC(=O)c2ccc(NC(=O)C3=CSCCO3)cc2)cc1,2.4
21,Cc1nc2ncnn2c(Nc2ccc3c(c2)OCO3)c1Cc1ccccc1,-26.8
22,O=C(COc1coc(CN2CCN(c3cccc(Cl)c3)CC2)cc1=O)NC1CCCC1,3.81
23,Cc1cc2ccccc2c(=O)n1CC(=O)Nc1ccc2c(c1)OCO2,11.1

row,SMILES,"hERG current change (%, negative = inhibition) at 1uM [%]"
1,CC(=O)Nc1ccc(/C(C)=N/NC(=O)c2ccncc2)cc1,6.26
2,CCCn1c(N)c(C(=O)CN(C)CC(=O)Nc2c(Cl)cccc2Cl)c(=O)[nH]c1=O,0.55
3,NC(=O)Cn1nc2sc3ccccc3n2c(=O)c1=O,14.6
4,CCOC(=O)c1oc2nc3c(cc2c1N)CCCC3,10.4
5,CCOc1ccc(NC(C)c2cc(Cl)ccc2O)cc1 (stereo not drawn),11
6,CCOC(=O)CCc1c(C)c2ccc(OC3CCCCC3=O)cc2oc1=O (stereo not drawn),17.9
7,COc1ccc(Cc2nnc(SCc3ccc([N+](=O)[O-])cc3)o2)cc1,-7.11
8,Cc1nc(-c2ccc(Cl)cc2)sc1C1(C)CC(c2cccc([N+](=O)[O-])c2)=NO1 (stereo not drawn),8.09
9,Cc1ccccc1OCC(=O)Nc1ccccc1CO,14.5
10,CC(=O)Nc1ccc(-c2nnn(CC(=O)c3ccc(F)cc3)n2)cc1Cl,8.91
11,CCN(CC(=O)Nc1ccccc1OC)C(=O)CN1C(=O)NC2(CCCC2)C1=O,-17.4
12,O=c1ccn([C@@H]2O[C@H](CO)[C@@H](O)[C@H]2O)c(=O)[nH]1,12.5
13,CCCN1CCCC[C@H]1C(=O)Nc1c(C)cccc1C.Cl,-7.61
14,Cc1cc(C)n(C(=O)CCCCCCCC(=O)n2nc(C)cc2C)n1,5
15,O=C1NC(=O)N(c2ccc(Cl)cc2)C(=O)/C1=C/c1coc2ccc(O)cc2c1=O,14.2
16,O=C(O)CCCC(=O)NCCc1ccncc1,11.1
17,Cc1ccc(-n2nnnc2SCC(=O)NCCC2=CCCCC2)c(C)c1,16.2
18,COc1cccc(NC(=O)c2cnc[nH]2)c1,14.6
19,CCCCN1CN(Cc2ccccc2)CNC1=S,14.4
20,CC(C)OCCCNC(=O)C1CCN(S(=O)(=O)c2ccc3nc4c(c(C(=O)O)c3c2)CCCCC4)CC1,29.1
21,Cc1cc(C(=O)N2CCCC(N3CCN(c4cccc(Cl)c4)CC3)C2)no1 (stereo not drawn),10.5
22,O=C1NC(=S)N/C1=C/c1cccnc1,9.03
23,CCOC(=O)C1CCN(Cc2nc(-c3ccc(OC)c(OC)c3)no2)CC1,8.51

row,SMILES,"hERG current change (%, negative = inhibition) at 1uM [%]"
1,COC(=O)CC(NS(=O)(=O)c1cccs1)c1ccccc1Cl (stereo not drawn),21
2,O=C(CSc1ncn[nH]1)NC12CC3CC(CC(C3)C1)C2,0.0513
3,O=C(CCN1C(=O)/C(=C/c2cccc(Br)c2)SC1=S)Nc1cccnc1,9.87
4,CCCN(C(=O)CSc1cc(-c2ccccc2)c2ccc(OC)cc2n1)C1CCS(=O)(=O)C1 (stereo not drawn),18
5,CC(C)=C1C2CCC1C(C(=O)NCc1ccccc1)C2C(=O)O (stereo not drawn),10.3
6,NNC1=[NH+][C@H]2CS(=O)(=O)C[C@H]2S1.[Br-],18.3
7,CC(C)NC(=O)C1CC=CCC1C(=O)O (stereo not drawn),9.37
8,Cc1ccccc1C(=O)OCC(=O)N(C)c1ccccc1,11.7
9,O=C(Cn1cnc2ccccc21)N/N=C/c1cccc([N+](=O)[O-])c1,3.02
10,CCOC(=O)Cn1nc(C)c2ccccc2c1=O,4.8
11,COc1ccccc1CCNC(=O)C(=O)c1cn(CC(=O)N2CCCC2)c2ccccc12,10.7
12,O=S(=O)(NCCc1cn2ccccc2n1)c1ccc(F)c(C(F)(F)F)c1,-8.49
13,Cc1ccc(CNC(=O)CCNS(=O)(=O)c2ccc(C)cc2)cc1,16.7
14,NNC(=O)c1csc(CS(=O)(=O)c2ccc(Cl)cc2)n1,5.43
15,CCOC(=O)Cn1c(=S)[nH]c2c(oc3ccc(Cl)cc32)c1=O,2.06
16,CCc1ccc(NC(=S)N(CCOC)C2CCN(C(C)=O)CC2)cc1,17.5
17,COCCNC(=O)/C(C#N)=C/c1cccc(NC(=O)c2ccccc2Cl)c1,4.09
18,CCOC(=O)C1=C(CS(=O)(=O)c2ccccc2)NC(=O)NC1c1ccccc1 (stereo not drawn),12.5
19,COc1ccc(C(=O)N2CCC(O)(c3ccc(Cl)cc3)CC2)cc1OC,-5.68
20,Cc1ccc(S(=O)(=O)N2Cc3ccccc3CC2C(=O)Nc2ccc3c(c2)OCO3)cc1 (stereo not drawn),3.79
21,COCCN=C1Sc2nc3cc4c(cc3cc2CN1CC1CCCO1)OCO4.Cl (stereo not drawn),5.27
22,CC1(C)NC(=O)N(CC(O)CN(c2cccc([N+](=O)[O-])c2)S(=O)(=O)c2ccccc2)C1=O (stereo not drawn),8.68
23,CC(OC(=O)CCc1nc2ccccc2c(=O)[nH]1)C(=O)NC1CCCC1 (stereo not drawn),12.1

row,SMILES,"hERG current change (%, negative = inhibition) at 1uM [%]"
1,COc1ccc(CC(=O)NCCN2CCCC2)cc1.Cl,12.1
2,c1ccc(CCCN2CCN(c3ccccc3)CC2)cc1,-21.8
3,CCOc1ccc2c(c1)C(=O)c1cc(OCC(=O)O)ccc1-2,10.6
4,COCCCn1c(N)c(C(=O)Nc2sc3c(c2C(=O)OC)CCCC3)c2nc3ccccc3nc21,-3.2
5,COc1ccccc1N(CC(=O)NCc1ccccc1)S(C)(=O)=O,13.5
6,C(=N\N1CCN(Cc2ccccc2)CC1)/c1ccc(-c2ccccc2)cc1,3.77
7,O=C(c1ccccc1C(F)(F)F)N1CCN(S(=O)(=O)c2ccccc2)CC1,21.9
8,Brc1ccc(C2=NC(Cc3ccccc3)CO2)cc1 (stereo not drawn),7.15
9,Cc1ccc(NS(=O)(=O)c2cc(OCC(N)=O)c(C)cc2Cl)cc1,12.9
10,C/C(=N\NC(=O)c1ccc(CSc2nncn2C)cc1)c1ccc2ccccc2c1,7.75
11,O=C(NCc1cccnc1)c1cc(-c2ccco2)on1,8.42
12,CCOC(=O)c1ccc(N/C=C2/CCCC(C)C2=O)cc1 (stereo not drawn),13.6
13,CCn1c(SCC(=O)NCCc2ccc(F)cc2)nnc1-c1cccs1,-13.5
14,CC(=O)Oc1ccc(C(=O)Nc2cccc(C(=O)c3ccc(C)c(C)c3)c2)cc1,-8.66
15,Nn1c(SCC(=O)Nc2ccc(F)cc2)nnc1C1CCCCC1,11.3
16,Cc1noc(C)c1COc1ccccc1C(=O)N1CCN(c2cccc(C(F)(F)F)c2)CC1,-4.25
17,Cc1cc(-c2ccc(C)c(S(=O)(=O)NCCC(C)N3CCCCCC3)c2)on1 (stereo not drawn),14.2
18,CCc1cccc(C)c1NC(=O)Cn1nc(C)n2cccc2c1=O,18
19,CC(=O)c1ccc(OCC(O)CN2CCN(CC(O)COc3ccc(C(C)=O)cc3)CC2)cc1 (stereo not drawn),-7.77
20,Cc1ccc(-n2nnnc2SC(C)C(=O)Nc2ccc(Cl)cn2)cc1 (stereo not drawn),8.95
21,CCc1nnc(NC(=O)CCC(=O)NCc2ccccc2Cl)s1,11.1
